Data reported in PubChem BioAssay (NCATS).
The inconclusive results got no clear call from the source; some entries with a clear call stand among them for comparison. A potency beside an inconclusive call is a rough fit, not a confirmed value. The source made the active and inactive calls. Calls come from the whole dose curve; as a rule, active = well fitted inhibition curve with a large enough effect; inconclusive = small, poorly fitted or top-dose-only effect; inactive = no such curve, though single readings can be large or run the other way.

Target: Retinaldehyde dehydrogenase 3 (Homo sapiens) (UniProt P47895)
Assay: qHTS for Inhibitors of the Aldehyde Dehydrogenase Family (ALDH1A3) Confirmatory screens (AID 2061311); note: nearly all actives have a fitted effect of over 60% in size
Settings: ALDH inhibition qHTS; activity change, negative = inhibition: at 46 µM (top of the series); series mostly up to 46 µM
% is set by controls: 0 for no effect and ±100 for the full control effect; potency is the fitted concentration of half-maximal effect; tags give direction and shape of the fitted curve.

SMILES | activity change, negative = inhibition | Potency | outcome
CN(CCCOc1ccc(Cc2ccccc2)cc1)CCC(=O)O | inactive: -33.2% | – | –
CNc1oc(-c2ccc3c(c2)OCCO3)nc1C#N | – | inconclusive: 22.5 µM [inhibitor, partial curve] | –
COc1cc(N2C(=O)c3ccccc3C2=O)c2ncccc2c1 | – | inconclusive: 28.3 µM [inhibitor, partial curve, poor fit] | –
O=C(NC1CCCc2c1cnn2-c1ccc(F)cc1F)c1ccccn1 (configuration not stated) | inactive: -0.259% | – | –
CCOc1ccccc1-c1nnc2n1N=C(c1ccc(OC)cc1)CS2 | – | – | inactive
COc1ccc(C2Nc3ccccc3C(=O)N2CCc2ccccc2)cc1COc1ccc(NC(C)=O)cc1 (configuration not stated) | – | inconclusive: 10 µM [inhibitor, full curve, poor fit] | –
N#Cc1c(-c2cccc(Br)c2)no[n+]1[O-] | – | inconclusive: 22.5 µM [inhibitor, partial curve] | –
CC(C)c1ccc(S(=O)(=O)c2cnc(SCC(=O)Nc3ccc4c(c3)OCCO4)[nH]c2=O)cc1 | inactive: -10.4% | – | –
Clc1cccc(COc2cncc(N3CCNCC3)n2)c1 | – | – | inactive
O=C(O)c1ccccc1SC1=NS(=O)(=O)c2ccccc21 | – | inconclusive: 15.9 µM [inhibitor, partial curve, poor fit] | –
Oc1ccc(CC2NCCc3cc(O)c(O)cc32)cc1 (configuration not stated) | inactive: -18.3% | – | –
O=C(Nc1cncc(-c2cccc3ccccc23)c1)c1cccs1 | – | active: 20.1 µM | –
COc1ccc(C2NC(=O)c3ccccc3N2)cc1COc1ccc(NC(C)=O)cc1 (configuration not stated) | – | – | inactive
O=C(Cn1nc(-c2ccc(F)cc2)ccc1=O)NCCc1ccccc1 | – | inconclusive: 20.1 µM [inhibitor, partial curve] | –
CN(C)c1cccc(Oc2cnc(Nc3cccc(O)c3)nc2)c1 | – | inconclusive: 22.5 µM [inhibitor, partial curve, poor fit] | –
COc1ccc(NC(=O)c2ccc(-c3ccc(C(=N)N)cc3C)cc2)cc1N1CCN(C)CC1 | – | inconclusive: 25.2 µM [inhibitor, partial curve] | –

SMILES | activity change, negative = inhibition | Potency | outcome
O=c1c2ccccc2nc2sc(Nc3ccc(Sc4ccccc4)cc3)nn12 | – | inconclusive: 12.7 µM [inhibitor, partial curve] | –
COc1ccc(-c2c(-c3cc(C(=O)O)ccn3)ncn2C)cc1 | inconclusive: -34.8% [inhibitor] | – | –
O=C(Nc1cccc(-c2nc3cc(Cl)ccc3o2)c1)c1cc([N+](=O)[O-])ccc1N1CCOCC1 | – | inconclusive: 5.62 µM [inhibitor, partial curve, poor fit] | –
Nc1cccc(CNC(=O)c2ccc(Oc3ccc(OCc4cccc(F)c4)cc3)nc2)c1 | – | inconclusive: 6.34 µM [inhibitor, full curve] | –
CCN(CC)CCNC(=O)c1ccc(N)cc1 | inactive: -1.6% | – | –
CCOc1ccc(CCNC(=O)c2cc3sccc3n2CC)cc1OCC | inactive: -29% | – | –
CN[C@@H]1[C@H](O[C@H]2[C@H](O[C@@H]3[C@@H](O)[C@H](O)[C@@H](N=C(N)N)[C@H](O)[C@H]3N=C(N)N)O[C@@H](C)[C@]2(O)C=O)O[C@@H](CO)[C@H](O)[C@H]1O | inactive: -2.06% | – | –
COc1cccc(-c2ccc(NC(=O)C3=C(C(=O)O)CCC3)c(F)c2)c1 | – | inconclusive: 3.55 µM [inhibitor, full curve, poor fit] | –
Brc1ccc([C@H]2CN3CCSC3=N2)cc1 | inactive: 4.02% | – | –
Cc1nnc(-c2sc(NC(=O)[C@H](C(C)C)n3c(=O)[nH]c4ccccc4c3=O)nc2C)o1 | inactive: -15% | – | –
CCN(CC)c1nc2ccccc2nc1C(=O)Nc1ccc(C(C)=O)cc1 | inactive: -4.1% | – | –
CC(C)N1CCc2c(sc(NC(=O)C3CC3)c2-c2nc3ccccc3s2)C1 | – | inconclusive: 25.1 µM [inhibitor, partial curve] | –
Cc1ccnc(NC(=S)N2CCN(C)CC2)c1 | – | inconclusive: 22.5 µM [inhibitor, partial curve, poor fit] | –
CCCN(CCN1CCN(c2ccccc2OC)CC1)C1CCc2ncsc2C1 (configuration not stated) | inactive: -14.1% | – | –
C=C(C)C(=O)O[C@H]1[C@H]2C(=C)C(=O)O[C@@H]2/C=C(\CO)CC/C=C(/C=O)[C@@H]1O | – | inconclusive: 17.5 µM [inhibitor, single point] | –

Target: Retinaldehyde dehydrogenase 3 (Homo sapiens) (UniProt P47895)
Assay: qHTS for Inhibitors of the Aldehyde Dehydrogenase Family (ALDH1A3) Validation screen (AID 2061312); note: nearly all actives have a fitted effect of over 45% in size
Settings: ALDH1A3 enzyme inhibition qHTS validation, fluorescence; activity change, negative = inhibition: at 84.7 µM (top of the series)

SMILES | Potency | activity change, negative = inhibition
CN(CCCOc1ccc(Cc2ccccc2)cc1)CCC(=O)O | inconclusive: 10 µM [inhibitor, full curve] | –
Clc1cccc(COc2cncc(N3CCNCC3)n2)c1 | inconclusive: 35.5 µM [inhibitor, single point] | –
Oc1ccc(CC2NCCc3cc(O)c(O)cc32)cc1 (configuration not stated) | inconclusive: 11.2 µM [inhibitor, full curve, poor fit] | –
O=C(Nc1ccc(S(=O)(=O)C(F)(F)F)cc1)C1=CCN(c2ncccc2C(F)(F)F)CC1 | inconclusive: 1 µM [inhibitor, full curve, poor fit] | –
CN(C)c1cccc(Oc2cnc(Nc3cccc(O)c3)nc2)c1 | active: 8.91 µM | –
COc1ccc(NC(=O)c2ccc(-c3ccc(C(=N)N)cc3C)cc2)cc1N1CCN(C)CC1 | inconclusive: 20 µM [inhibitor, full curve] | –
CCN(CC)CCNC(=O)c1ccc(N)cc1 | inconclusive: 5.62 µM [inhibitor, full curve, poor fit] | –
CN[C@@H]1[C@H](O[C@H]2[C@H](O[C@@H]3[C@@H](O)[C@H](O)[C@@H](N=C(N)N)[C@H](O)[C@H]3N=C(N)N)O[C@@H](C)[C@]2(O)C=O)O[C@@H](CO)[C@H](O)[C@H]1O | – | inactive: 42.5% [at 42.4 µM]
COc1cccc(-c2ccc(NC(=O)C3=C(C(=O)O)CCC3)c(F)c2)c1 | inconclusive: 39.8 µM [inhibitor, partial curve, poor fit] | –
Cc1nnc(-c2sc(NC(=O)[C@H](C(C)C)n3c(=O)[nH]c4ccccc4c3=O)nc2C)o1 | inconclusive: 22.4 µM [inhibitor, full curve, poor fit] | –
COc1ccc(CC2NCCc3c2[nH]c2ccc(C)cc32)cc1OC (configuration not stated) | inconclusive: 6.31 µM [inhibitor, full curve] | –
